#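 All cell lines were grown in 96-well plates and treated with compound for 48 hours. GI50 = concentration required for 50% inhibition of growth. TGI: concentration producing complete growth inhibition.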
# Tested on: NCI-H322M lung
# Assay: NCI tumour cell line growth inhibition, 48 h
Compound,GI50 [µM],TGI [µM]
COc1cc(C(=O)O[C@H](C(N)=O)[C@]2(C)CO2)c2ccccc2c1,27.2,65.6
CNC(=O)N1CCN(C(=O)NC)CCN(C(=O)NC)CC1,,> 100
CC(C)NC(=O)OCc1c(COC(=O)NC(C)C)c(-c2ccc[n+](COC(=O)CC(C)(C)C)c2)n2c1CCC2,,> 100
COc1ccc(OC(=O)O[C@H]2[C@H](O[C@H]3[C@@H](O)COC(O[C@H]4C[C@H]5[C@@H]6CC=C7C[C@@H](O)CC[C@]7(C)[C@H]6CC[C@]5(C)[C@H]4[C@H](C)C(=O)CCC(C)C)[C@@H]3OC(C)=O)OC[C@@H](O)[C@@H]2O)cc1 (stereo partly drawn),9.1,23.7
CCN(CC)C(=O)C/C(C)=N/NC(=O)c1ccncc1,,> 100
CC(=O)NC(CCCN)C(=O)NCc1ccccc1 (stereo not drawn),,> 100
c1ccc2c(c1)nc1n2CNCC1,,> 100
COc1cc(Cc2cc(OC)c(OC)c(OC)c2)ccc1O,,> 100
O=c1[nH]nc(-c2cccc(Br)c2)[nH]1,,> 100
Cc1nc(N)c(N2CCNCC2)c(=O)[nH]1,,> 100
COC(=O)C(=O)C(C(=O)C(=O)Nc1ccc(C)cc1C)c1nc2ccccc2[nH]c1=O (stereo not drawn),,> 100
CC(C(=O)N1c2ccccc2Sc2ccccc21)N1c2ccccc2Sc2ccccc21 (stereo not drawn),,> 100
O=[N+]([O-])c1ccccc1N=Nc1c(O)sc2ccccc12,,> 100
Cc1c2c(nn1-c1ccc(S(=O)(=O)/N=C3\SCC(=O)N3C(=O)c3ccccc3)cc1)-c1ccccc1CC2,> 100,> 100
O=c1c2ccccc2nnn1-c1n[nH]c2ccccc12,,> 100
COc1ccc(-n2c(SCc3cc(OC)c(OC)c(OC)c3)nc3ccc(C)cc3c2=O)cc1,> 100,> 100
COc1ccc(-c2nc(-c3nc4ccc(C)cc4[nH]3)c3ccccn23)cc1,2.38,7
CC[C@@H]1/C=C/C=C/C[C@H](C)[C@@H](O)[C@](C)(O)C(=O)[C@H](C)[C@@H](O)[C@H](C)C(=O)[C@H](C)[C@@H](O)[C@H](C)/C=C/C(=O)O[C@H]2[C@@H](C)[C@@H](CC1)O[C@]1(O[C@H](CC(C)O)[C@H](C)CC1=O)[C@@H]2C (stereo partly drawn),,> 25
CC1=C2C3=C(C)C(=O)C(C)(C)CC[C@@]3(C)[C@]2(C)CCC(C)(C)C1=O,,> 100
CC[N+](C)(CC)Cc1ccccc1[N+](=O)[O-],,> 100
Cc1oc2nc(N(C)C)nc(Cl)c2c1C,,> 100
COc1cc2c(c(OC)c1OC)-c1ccc(SC)c(=O)cc1C(CC(=O)Oc1ccc([N+](=O)[O-])cc1)C2 (stereo not drawn),,> 50.2
CCC1c2[nH]c3ccccc3c2C[C@H]2C(=O)NC(CCC(=O)OC(C)(C)C)C(=O)N12 (stereo partly drawn),,> 100
CC(=O)NNc1nc(C)c(C(/C=C/c2cccc([N+](=O)[O-])c2)=N/NC(=S)NN)s1,,> 100
Cc1c(Cc2ccccc2)n(COCCCO)c(=O)[nH]c1=O,,> 100

Compound,GI50 [µM],TGI [µM]
O=C(CSc1nnc(Cc2ccccc2)o1)Nc1cccc([N+](=O)[O-])c1,,> 100
CC(=O)NCc1nc(C#N)c(N)o1,,> 100
CCOC(=O)Cn1sc2ncc([N+](=O)[O-])cc2c1=O,,31.5
NCC(=O)NC(CCCC(NC(=O)CN)P(=O)(O)O)P(=O)(O)O (stereo not drawn),,> 100
CCC(C)(O)c1cn(-c2cccc(S(=O)(=O)O)c2)nn1 (stereo not drawn),,> 100
Nc1nccc(-c2c(-c3ccc(F)cc3)ncn2CCCN2CCOCC2)n1,> 25,> 25
Cn1c(=O)c2c(nc(NCCCCl)n2CC(=O)NCCCCl)n(C)c1=O,,> 100
O=[N+]([O-])C(C(Cl)=C(Cl)Cl)=C(N1CCOCC1)N1CCOCC1,,> 100
COc1cccc(N=Cc2c3ccccc3c(=O)n3c2oc2ccccc23)c1,3.08,36.3
CCCCCCCCCCCCCCCCOP(=O)(O)Oc1ccc(/C=C\c2ccc(OP(=O)(O)OCCCCCCCCCCCCCCCC)cc2)cc1,,> 100
NCCCNCCSSCCCCS(=O)O,,> 100
CC(C)=CC(=O)N1CCN(C(=O)C=C(C)C)CC1,,> 100
COc1ccc(C(=O)O)c(Cc2cccc3ccccc23)c1,,> 100
CN(C)C(=S)/N=c1\ss/c(=N\C(=S)N(C)C)n1-c1ccc2c(c1)OCO2,,> 100
Cn1cc(-c2csc(-c3cccc(F)c3)n2)c2cccnc21,17,45.3
O=C(CCCSc1nc(-c2ccc(Cl)cc2)cc(-c2ccc(Cl)cc2)n1)NO,0.597,11.3
C[C@]12CC[C@@H]3c4ccc(O)cc4CC[C@H]3[C@@H]1CC[C@@H]2NS(=O)(=O)c1ccc(C(F)(F)F)cc1,3.84,15
CN(CCCNc1ccc2ncn3c4ccccc4c(=O)c1c23)CCCN1C(=O)c2cccc3cc([N+](=O)[O-])cc(c23)C1=O,,1.9
Nc1ccc(C(=O)Nn2c(-c3ccccc3)nc3ccccc3c2=O)cc1,,> 100
CCCCn1c(-c2ccc(C(=O)O/N=C(\N)c3ccc(OC)cc3)cc2)nc(-c2ccccc2)c1-c1ccccc1,3.15,> 100
COC(=O)C(=O)C(C(=O)C=C(C)C)C(=O)C(=O)Nc1ccc(Cl)cc1C (stereo not drawn),,> 100
O=C(NC1CCCCCC1)C1C(=O)N(C2CCCCCC2)C(=O)/C1=N\O (stereo not drawn),,> 100
Cn1cc(C2=C(c3cn(CCCN=C(N)N)c4ccccc34)C(=O)NC2=O)c2ccccc21,> 25,> 25
C[C@]12CC[C@@H]3c4ccc(O)cc4C[C@@H](CCCCCCCCCS(=O)CCCC(F)(F)C(F)(F)F)[C@H]3[C@@H]1CC[C@@H]2O (stereo partly drawn),> 68.7,> 100
N#Cc1nc(COCCOCc2ccccc2)oc1N,,> 100

Compound,GI50 [µM],TGI [µM]
CC12CCCC(CC(=O)c3[nH]c4ccccc4c31)C2 (stereo not drawn),5.77,> 100
CN1C(NC(=O)c2ccc(Cl)nc2)=NS(=O)(=O)c2cc(Cl)ccc21,42.1,> 100
Nc1nc(Cl)cc(NCC2(CO)COC2)n1,,> 100
CCOc1cc(NC(C)=O)ccc1C(=O)NN1C(=O)C(Oc2ccccc2)C1c1ccc(O)c(OC)c1 (stereo not drawn),,> 100
O=C1c2ccccc2S[C@@H](O)[C@@H]2CCCN12,,> 100
CCOC(=O)c1c(C)n(Cc2ccc(OC)cc2)c2c1cc(O)c1[nH]c3c(c12)CCCC3,2.83,27.7
CNC1C(=O)C(C)C(O)(C(CC(C)C(O)/C=C/C=C/CNC(=O)C(C)(C)C(O)\C(C)=C/C=C\C=C\Cc2cnc(C)o2)OC)C12C(=O)OC2COC (stereo not drawn) (tested in a mixture with another compound),,> 100
Cc1cc(O)c(/C=N/C(=S)NCCc2ccccc2)c(=O)o1,,> 100
C#CC[C@]12CC(=O)CC[C@H]1CC(=O)C2,,> 100
COc1ccc(-n2cc(-c3cc(OC)c(OC)c(OC)c3)[nH]c2=S)cc1OC,> 100,> 100
CCOC(=O)NC(=O)c1cn(CCCOC(=O)NCCCCCCNC(=O)OCCCn2c(=O)c(C(=O)NC(=O)OCC)cn(C)c2=O)c(=O)n(C)c1=O,,> 100
Cc1[nH]c(N=Nc2ccccc2)nc1N=Nc1ccccc1,2.28,9.02
CCN(CC)Cc1cc(Nc2ccnc3ccc4c(nnn4C)c23)ccc1O,,37.8
NC(N)=N/N=C/c1c(Cl)nc2sccn12,,88
CC[C@H](C)[C@H](NC(=O)[C@H]1CCCCN1C)C(=O)N(C)[C@H](CCc1nc(C(=O)N[C@@H](Cc2ccccc2)C[C@H](C)C(=O)OC)cs1)C(C)C,1.3,> 25
COc1ccc(C(=O)/C=C/c2cccnc2Nc2cc(OC)c(OC)c(OC)c2)cc1,5.69,19.1
COc1cc(-c2c(C#N)c(N)n3c(nc4ccccc43)c2C#N)cc(Br)c1OC,> 100,> 100
N#CCCN(CCC#N)c1ccc(C(=O)NN)cc1,,> 100
COc1ccc(/C(=N/Nc2ccc([N+](=O)[O-])cc2)Sc2cc(Cl)c(C)cc2S(N)(=O)=O)cc1,2.52,7.67
Oc1cc(O)c2c(c1)O[C@H](c1cc(O)c(O)c(O)c1)[C@H](O)C2,,> 100
O=P(O)(O)CN1CCN(CP(=O)(O)O)CCN(CP(=O)(O)O)CCN(CP(=O)(O)O)CC1,,> 100
O=C(O)C(Sc1ccc(Cl)cc1)Sc1ccc(Cl)cc1,,> 100
C[N+](C)(N)CCC[N+](C)(C)N,,> 100
COC(=O)c1cc2c(c(C(=O)OC)c1O)C(=O)C=CC2=O,,> 100
O=C(O)c1cc(N=Nc2ccc([As](=O)(O)O)cc2)ccc1O,,> 100

Compound,GI50 [µM],TGI [µM]
CN1CCC(OC(=O)Oc2ccccc2)(c2ccccc2)CC1,,49.9
CCCCNC(=O)NS(=O)(=O)c1ccc(N2N=C(c3ccc(C)cc3C)CC2c2ccc(N(C)C)cc2)cc1 (stereo not drawn),5.19,> 100
COC12C=CC(CC1)C(C)(C)C2=O (stereo not drawn),,> 100
Cc1cc(C2CCCCC2)n(O)c(=O)c1,1.47,> 100
C[C@]12CC[C@@H]3c4ccc(Oc5nc(N6CC6)nc(N6CC6)n5)cc4CC[C@H]3[C@@H]1CCC2=O,5.78,17.9
NC1C2(CCCCCC2)NC(=O)C12CCCCCC2 (stereo not drawn),,> 100
Cc1cccc2c(N)c3cccc(C(=O)NCCCNCCN)c3nc12,,18.2
O=S(O)CCCCSSCCCCSSCCCCS(=O)O,,> 100
C=C(C)[C@@H](C(=O)OC)N1C(=O)c2ccccc2C1=O,,> 100
Cc1cccc(N2C(=O)C(Cl)=C(Cl)C2=O)c1,,> 100
CCOC(=O)C(Cl)(NC(=O)c1ccc(F)cc1)C(F)(F)F (stereo not drawn),,> 100
CC(=O)c1ccc(NC(=O)/C(Cc2ccccn2)=N/NC(=O)C[N+](C)(C)C)cc1,,> 100
CCOC(=O)NC(Nc1ccc(S(=O)(=O)Nc2ncccn2)cc1)(C(=O)OCC)C(F)(F)F (stereo not drawn),,> 100
COc1ccc(S(=O)(=O)N(Cc2ccc3c(n2)C=CC(C)(C)O3)C2CCC2)cc1OC,< 0.01,0.253
COC(=O)CSc1n[nH]c(-c2ccc(O)c([N+](=O)[O-])c2)n1,,> 100
COC(=O)C1(c2ccc(N(C)C)cc2OC)CCCN(C(=O)Oc2ccccc2[N+](=O)[O-])CCc2c1[nH]c1ccccc21 (stereo not drawn),,> 100
CCOC(=O)/C(O)=C(/C=NC(=S)c1ccncc1)C(=O)OCC,,> 100
CC(C)CCN=c1cc2n(-c3ccc(Cl)cc3)c3ccccc3nc-2cc1Nc1ccc(Cl)cc1,,52.6
COc1ccc2c(c1)CCCc1cn[nH]c1-2,,> 100
CNC=O.[O]=[Ge].[O]=[Ge].[O]=[Ge].[O]=[Ge][OH].[O]=[Ge][OH],,> 100
CN(C)C(=S)SN(C)C(=O)Nc1ccccc1,,> 96.5
CCOC(=O)[C@H]1Nc2ccc(C)cc2C2c3ccccc3CC21 (stereo partly drawn),,> 100

# From PubChem BioAssay (NCI)
